# Laboratory results from PubChem BioAssay AID504832 (National Center for Advancing Translational Sciences (NCATS), 2011).
# The whole screen tested about 310,000 compounds, of which about 18,000 (5.8%) were called active. The inconclusive results got no clear call from the source; some entries with a clear call stand among them for comparison. Calls follow the shape of the dose curve; as a rule, active = well fitted inhibition curve with a large enough effect; inconclusive = small, poorly fitted or top-dose-only effect, or another doubt; inactive = no such curve, though single readings can be large or run the other way. Potencies of inconclusive entries are left out as doubtful fits.
# Assay: Primary qHTS for delayed death inhibitors of the malarial parasite plastid, 48 hour incubation
# Details: P. falciparum luciferase growth in erythrocytes; series mostly up to 28.7 µM; activity change, negative = inhibition: at the top concentration
# Method in brief: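 Compounds are pin-transferred into medium, infected erythrocytes (2% hematocrit, 0.1% parasitemia final) are added, and plates sit one parasite generation at 37 C in 5% CO2. Detection reagent is then added and luminescence measured.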
# % is scaled to controls: 0 for no effect and ±100 for the full control effect; potency is read from the fitted curve at half-maximal effect; tags tell the direction and shape of the fitted curve.
Structure (SMILES),Potency,"activity change, negative = inhibition"
Cc1ccccc1C1c2[nH]c3ccccc3c2CCN1Cc1cccn1-c1ncccn1 (stereo unspecified),"inconclusive [inhibitor, partial curve]",–
CCN1CCN(CCOCCOc2ccccc2-c2ccccc2)CC1,–,inactive: -29%
COc1ccc(C(=O)/C=C/c2cccs2)c(OC(=O)N2CCOCC2)c1,"inconclusive [inhibitor, full curve]",–
COCc1c(C(=O)OCC(=O)N2c3ccccc3NC(=O)C2(C)C)oc2ccccc12,"inconclusive [inhibitor, full curve, poor fit]",–
O=C(NCCCNC(=O)C(F)(F)C(F)F)C(F)(F)C(F)F,–,inactive: 15.5%
Cc1cc(C)c(OCC(=O)Nc2nnn(C)n2)c(Br)c1,–,inactive: -20.6%
CC(Cc1ccccc1)NCCC(=O)NC(C)Cc1ccccc1 (stereo unspecified),"inconclusive [inhibitor, single point]",–
CCn1c(SCC(=O)N(C)CC(=O)Nc2ccc(OC)cc2)nnc1-c1ccco1,"inconclusive [inhibitor, single point]",–
O=c1c(/C=C(\O)c2ccccc2)nc2ccccc2n1-c1ccccc1,"inconclusive [inhibitor, single point]",–
COc1ccc(/C=C(\C#N)C(=O)OCC(=O)NCc2ccc(Cl)cc2)cc1,"inconclusive [inhibitor, single point]",–
COc1ccccc1C(=O)N/C(=C\c1cn(C)c2ccccc12)C(=O)NCCCN1CCOCC1,"inconclusive [inhibitor, single point]",–
CCOC(=O)c1cc(C)sc1NC(=O)CN1CCN(C(=O)c2ccco2)CC1,"inconclusive [inhibitor, single point]",–
Cc1ccc(NC(=S)N2CCCN(Cc3ccc(F)cc3)C2)c(C)c1,"inconclusive [inhibitor, single point]",–
CC(C)(C)OC(=O)CN1C(=O)NC2(CCCc3ccccc32)C1=O (stereo unspecified),"inconclusive [inhibitor, full curve, poor fit]",–
COc1ccc(S(N)(=O)=O)cc1C(=O)NCCCN1CCN(c2cccc(Cl)c2)CC1,"inconclusive [inhibitor, partial curve, poor fit]",–
Cc1ccc(C(=O)N/C(=C\c2cn(S(=O)(=O)N(C)C)c3ccccc23)C(=O)NCCCn2ccnc2)cc1,"inconclusive [inhibitor, partial curve]",–
CCN(C(=O)CN1CCN(c2ccccc2OC)CC1)c1c(N)n(Cc2ccccc2)c(=O)[nH]c1=O,"inconclusive [inhibitor, single point]",–
Oc1ccc(/C=N/Nc2cc(N3CCOCC3)nc(N3CCOCC3)n2)cc1O,"inconclusive [inhibitor, single point]",–
COc1cccc(N(CC(=O)NCc2ccccc2)C(=O)CCC(=O)Nc2nccs2)c1,"inconclusive [inhibitor, single point]",–
COc1ccc(S(=O)(=O)N2CCN(CC(O)CN3CCOCC3)CC2)cc1 (stereo unspecified),"inconclusive [inhibitor, partial curve, poor fit]",–
O=C(C1CCCN(S(=O)(=O)c2cccnc2)C1)N1CCN(c2ccccn2)CC1 (stereo unspecified),"inconclusive [inhibitor, single point]",–

Structure (SMILES),Potency,"activity change, negative = inhibition"
CC(/C=N/NC(=O)CSc1ccccn1)=C\c1ccc(C(C)C)cc1,–,inactive: -12.2%
O=C(NC1CCCCCC1)C1CCC(=O)N(Cc2ccccc2F)C1 (stereo unspecified),"inconclusive [inhibitor, single point]",–
CC1CCN(Cc2c(C(=O)N/N=C/c3cc(Cl)ccc3O)nnn2-c2nonc2N)CC1,"inconclusive [inhibitor, single point]",–
COc1ccc(NC(=O)CSc2nnc(-c3ccccc3C)n2C)cc1,"inconclusive [inhibitor, partial curve, poor fit]",–
COc1ccccc1NC(=O)N1CCCC1C(=O)NC12CC3CC(CC(C3)C1)C2 (stereo unspecified),"inconclusive [inhibitor, partial curve, poor fit]",–
O=C(O)c1ccc(-n2c(/C=C/c3cccc([N+](=O)[O-])c3)nc3ccccc3c2=O)cc1,"inconclusive [inhibitor, partial curve]",–
O=C(Cc1cccs1)N1CCCC(c2nc(-c3ccc(S(=O)(=O)N4CCCC4)cc3)no2)C1 (stereo unspecified),"inconclusive [inhibitor, partial curve]",–
COCCCC1CCN(Cc2nc(-c3ccccc3)no2)CC1,–,inactive: 39%
N=c1n(CC(=O)c2ccc([N+](=O)[O-])cc2)c2ccccc2n1Cc1ccc(Cl)cc1,"inconclusive [inhibitor, single point]",–
O=C(N/N=C/c1ccc(O)cc1)Nc1cccc2nsnc12,–,inactive: 4.22%
Clc1cccc(N=C2NN=C(c3ccc4c(c3)OCCO4)CS2)c1,"inconclusive [inhibitor, single point]",–
COC(=O)c1c(C)[nH]c(C)c1-c1cccc([N+](=O)[O-])c1,"inconclusive [inhibitor, full curve]",–
CC(C)(C)N/N=C1\CC(c2ccccc2)Oc2ccccc21 (stereo unspecified),"inconclusive [inhibitor, partial curve, poor fit]",–
O=C(NCc1cccs1)C1CC1,–,inactive: -39.1%
COC(=O)C1CCN(C(=O)COC(=O)C2CCN(S(=O)(=O)c3c(Cl)cccc3Cl)CC2)CC1,"inconclusive [inhibitor, partial curve, poor fit]",–
Cc1cc(C)c2sc(N(CCN(C)C)C(=O)CCS(=O)(=O)c3ccccc3)nc2c1,"inconclusive [inhibitor, partial curve, poor fit]",–
COc1ccccc1CNC(=O)CCNC(=O)c1ccco1,"inconclusive [inhibitor, partial curve]",–
O=C(CCl)N=c1sccn1Cc1ccccc1Cl,active: 0.262 µM,–
O=S1(=O)CCN(Cc2ccc(F)cc2)CC1,–,inactive: -1.82%
CCOC(=O)c1csc(-c2ccc(OC)c(OC)c2)n1,"inconclusive [inhibitor, single point]",–
